Source: patent US20230233425A1, “USE OF VOLATILE COMPOSITIONS TO LIMIT OR ELIMINATE THE PERCEPTION OF MALODOR” (Firmenich SA, priority 2017, published 2023)
The name of at least one read-out is uncertain. Marks after values point to notes of the source that are not given here.

Columns and labels:
[1] = system: geonol earthy/moss odor perception; assay: Human sensory performance of test compounds with and without geonol; format: in vivo
Excerpt: Sensory Evaluation: Five 16 oz glass jars containing either REF (geonol only), geonol only control, antagonist only, mixture of geonol and isointense antagonist, or mixture of geonol and low intensity antagonist were presented to the panelists (last four samples were randomized across panelists). The panelists were asked to familiarize themselves with the earthy/moss odor quality from the REF jar first, then rate the pleasantness, earthy/moss odor intensity and overall odor intensity of the next four samples on a 0-10 linear scale. The inter-stimulus interval between the samples was two minutes to avoid adaptation. […]
The results are shown in Tables 16 and 17, and FIGS. 3 to 5.

[2] = system: 1-octen-3-ol mushroom/earthy/fungal odor perception; assay: Human sensory performance of test compounds with and without 1-octen-3-ol; format: in vivo
[3] = system: geonol malodor (earthy/moss odor) perception; assay: Sensory evaluation of geonol earthy/moss odor in iso-intense binary mixtures (glass jars); format: in vivo, human; conditions: iso-intense binary mixture
Excerpt: Sensory Evaluation: Five 16 oz glass jars containing either REF (geonol only), geonol only control, antagonist only, mixture of geonol and isointense antagonist, or mixture of geonol and low intensity antagonist were presented to the panelists (last four samples were randomized across panelists). The panelists were asked to familiarize themselves with the earthy/moss odor quality from the REF jar first, then rate the pleasantness, earthy/moss odor intensity and overall odor intensity of the next four samples on a 0-10 linear scale. The inter-stimulus interval between the samples was two minutes to avoid adaptation.

[4] = Low Dilution Test Compound + Geonol (0.1%)
[5] = Medium Dilution Test Compound + Geonol (0.1%)
[6] = Low Dilution Test Compound + 1-octen-3-ol (0.15%)
[7] = Medium Dilution Test Compound + 1-octen-3-ol (0.15%)

SMILES	% Earthy/Moss Odor Remaining [1, 4] [%]	% Earthy/Moss Odor Remaining [1, 5] [%]	% Mushroom/Earthy/Fungal Odor Remaining [2, 6] [%]	% Mushroom/Earthy/Fungal Odor Remaining [2, 7] [%]	% Remaining in human sensory tests [3]
CC(=O)O[C@H]1CCCC[C@@H]1C(C)(C)C	66.80	49.50	–	–	–
CC1CCCCCCCCCCCCC(=O)C1 (racemic) [(+−)-3-methylcyclopentadecanone]	–	–	73.60	75.20	–
CC1(C)CCC[C@]2(C)CC(=O)CC[C@@H]12 (racemic) [(+−)-perhydro-5,5,8A-trimethyl-2-trans-naphthalenone]	81.20	87.20	85.40	62.30	–
CC1C(C)(C)C2=C(C(=O)CCC2)C1(C)C (stereo not shown) [1,1,2,3,3-pentamethyl-2,5,6,7-tetrahydroinden-4-one]	–	–	77.90	56.00	–
O=C1CCCCCCCCCCC(=O)OCCO1 [1,4-dioxacyclohexadecane-5,16-dione]	–	–	89.10	80.40	–
CC=CC(=O)C1C(C)C=CCC1(C)C (stereo not shown) [1-(2,6,6-trimethyl-1-cyclohex-3-enyl)but-2-en-1-one]	90.40	78.20	73.10	72.20	–
CC(C)(C)c1ccccc1O [2-tertbutyl phenol]	88.00	68.40	–	–	–
CC(=CC=O)CCC(C)=C(C)C [3,6,7-trimethylocta-2,6-dienal]	99.10	64.90	97.80	68.40	–
CC(C)=CCCC(C)=CC=O [3,7-dimethylocta-2,6-dienal]	76.40	58.00	93.10	65.60	–
CC(=O)C=CC1=C(C)CCCC1(C)C [4-(2,6,6-trimethylcyclohexen-1-yl)but-3-en-2-one]	91.20	66.40	–	–	–
CC(=O)CCC1=C(C)CCCC1(C)C [4-(2,6,6-trimethylcyclohexen-1-yl)butan-2-one]	74.80	62.30	–	–	–
CC(C)=CCCC(C)=CCCc1ccncc1 [4-(4,8-dimethylnona-3,7-dienyl)pyridine]	–	–	89.70	73.60	–
CCCCCCc1ccc(C)nc1 [5-hexyl-2-methylpyridine 10% Citr, 5-hexyl-2-methylpyridine]	88.20	66.30	–	–	–
CC(=O)CCC=C(C)CCC=C(C)C [6,10-dimethylundeca-5,9-dien-2-one]	105.30	74.00	–	–	–
CC(=O)OC(c1ccccc1)C(Cl)(Cl)Cl (stereo not shown) [(2,2,2-trichloro-1-phenylethyl) acetate]	95.80	61.30	89.50	84.60	–
Cc1ccc2c(c1)CC(C)(CO)C2 (stereo not shown) [(2,5-dimethyl-1,3-dihydroinden-2-yl)methanol]	86.90	63.10	101.10	88.10	–
CC(=O)OC(C)(C)Cc1ccccc1 [(2-methyl-1-phenylpropan-2-yl) acetate]	89.10	72.10	–	–	–
CC(=O)OC(C)CC(C)(C)c1ccccc1 (stereo not shown) [(4-methyl-4-phenylpentan-2-yl) acetate]	–	–	90.30	77.70	–
C=C(C)[C@@H]1CCC2=CC(=O)C[C@@H](C)[C@]2(C)C1 [(4R,4aS,6R)-4,4a-dimethyl-6-prop-1-en-2-yl-3,4,5,6,7,8-hexahydronaphthalen-2-one]	103.90	99.70	–	–	–
CC=Cc1ccc(OCC)c(O)c1 [Compound 2-ethoxy-5-prop-1-enylphenol, 2-ethoxy-5-prop-1-enylphenol]	70.60	51.70	76.50	79.20	–
CCCCCC1CCCC1=O (stereo not shown) [Compound 2-pentylcyclopentan-1-one, 2-pentylcyclopentan-1-one]	101.60	86.80	–	–	–
CC(CCO)CCc1ccccc1 (stereo not shown) [Compound 3-methyl-5-phenylpentan-1-ol, 3-methyl-5-phenylpentan-1-ol]	87.10	80.70	–	–	–
O=C1CCC=CCCCCCCCCCC1 [cyclopentadec-4-en-1-one]	93.40	82.10	80.00	71.20	–
CCC=CCC=CC=CC(=O)OCC [ethyl deca-2,4,7-trienoate]	86.20	78.10	94.50	95.50	–
CC(C)Cc1ccc2ccccc2n1 [isobutylquinoline, 2-ISOBUTYLQUINOLINE]	79.60	71.70	88.20	75.00	52* %
CCC=CCCC=CC=O [nona-2,6-dienal]	83.70	88.60	–	–	–
O=C1CCCCCCCCCCCCCCO1 [oxacyclohexadecan-2-one]	60.80	55.10	90.70	72.10	–
OCCc1ccccc1 [phenylethylol, 2-PHENYLETHANOL]	98.80	78.20	–	–	58%
Cc1ccc(C(C)C)c(O)c1 [thymol, 5-Methyl-2-(propan-2-yl)phenol]	91.00	78.60	–	–	–
